These results are taken from PubChem BioAssay AID360 (National Center for Advancing Translational Sciences (NCATS), 2006).

The structures appear in SMILES notation. In all, about 48,000 compounds went through this assay and about 550 (1.1%) were called active. Roughly 4% stayed inconclusive and do not appear here. Cut-off read from the data, not from the text of the source: active = potency below about 15 µM; inconclusive = mostly about 16 µM to 33 µM; inactive = weaker than that. The list shows a part of the results.
Potency is the fitted concentration of half-maximal effect.

Chain of UniProt P04062 (P04062 whole entry, looked up): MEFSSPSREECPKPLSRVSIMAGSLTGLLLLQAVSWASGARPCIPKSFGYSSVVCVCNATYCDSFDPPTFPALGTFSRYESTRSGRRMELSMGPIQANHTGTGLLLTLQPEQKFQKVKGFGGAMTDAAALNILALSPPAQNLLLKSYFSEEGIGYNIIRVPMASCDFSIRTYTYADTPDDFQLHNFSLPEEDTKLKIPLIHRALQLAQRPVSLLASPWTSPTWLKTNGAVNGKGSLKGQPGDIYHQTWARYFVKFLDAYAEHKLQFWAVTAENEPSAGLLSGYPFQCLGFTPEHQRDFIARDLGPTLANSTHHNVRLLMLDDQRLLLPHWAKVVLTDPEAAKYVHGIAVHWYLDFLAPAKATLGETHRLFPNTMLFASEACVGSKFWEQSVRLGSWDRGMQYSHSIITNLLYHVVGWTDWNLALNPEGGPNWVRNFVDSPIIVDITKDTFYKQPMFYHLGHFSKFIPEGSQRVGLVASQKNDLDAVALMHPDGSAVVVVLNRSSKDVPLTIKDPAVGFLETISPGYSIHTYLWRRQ

The target of the assay is Lysosomal acid glucosylceramidase (Homo sapiens) (UniProt P04062). As to the kind of experiment: Glucocerebrosidase.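 Note: the screen sought inhibitors.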 The conditions noted are these: purified enzyme, resorufin glucoside fluorescence (screen aimed at inhibitors), 20 min. In short, it runs like this:
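Normal human glucocerebrosidase (0.2 nM final) was assayed with resorufin β-D-glucopyranoside (30 uM final) in 50mM citric acid/KH2PO4, 10mM sodium taurocholate, 0.01% tween-20, pH 5.9. Compounds were titrated; fluorescence (Ex 548, Em 600) read after 20 min at RT.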
For the compound `O=C1OCc2cccc3cccc1c23`, the Potency is inactive: > 76.9 µM.

With `CC(C)n1c(N2CCN(C(=O)N3CCCCC3)CC2)nc2ccccc21`, the Potency is inactive: > 76.9 µM. In the case of `COCCNC(=O)c1ccccc1-c1nc(-c2ccccc2Cl)no1`, the Potency is inactive: > 76.9 µM. For the compound `O=C(O)C1CC=CCC1C(=O)Nc1cc(Cl)ccc1Cl` (configuration not stated), the Potency is inactive: > 76.9 µM. As for `C#CC1(O)CC(C)N(C)C(C)C1` (configuration not stated), the Potency is inactive: > 76.9 µM. As for `CN(CCCC(=O)NCc1ccco1)S(=O)(=O)c1ccccc1`, the Potency is inactive: > 76.9 µM.

`O=C(Oc1nsnc1N1CCCCC1)N1CCOCC1`: the Potency was inactive: > 76.9 µM.

Regarding `COc1cccc(CNC(=O)c2ccccc2N)c1`, the Potency was inactive: > 76.9 µM. With `O=S(=O)(c1cccc(-c2nc3ccccc3s2)c1)N1CCCC1`, the Potency is inactive: > 76.9 µM. With `Cc1nnc(N2CCN(c3ccccc3)CC2)[nH]c1=O`, the Potency is inactive: > 76.9 µM.

Turning to `CCn1c(COc2ccccc2)nnc1SCc1ccc(C#N)cc1`, the Potency is inactive: > 76.9 µM. `O=C(NCCc1ccccn1)c1ccc(S(=O)(=O)N2CCCCCC2)cc1`: the Potency entry was “inactive”. Regarding `COc1ccc(OC)c(C(=O)C2COC(=O)C2)c1` (configuration not stated), the Potency was inactive: > 76.9 µM. As for `CCOc1cc(C2C(C#N)=C(N)Oc3n[nH]c(CC)c32)ccc1OCCN1CCOCC1` (configuration not stated), the Potency was inactive: > 76.9 µM.

For `CCOC(=O)c1c(C)c(C(=O)NCCc2ccc(S(N)(=O)=O)cc2)c(C)n1CC`, the Potency was inactive: > 76.9 µM. In the case of `COc1cccc(CNn2cnnc2)c1OCc1ccc(F)cc1`, the Potency was inactive: > 76.9 µM.

Consider `N#C/C(=C/c1ccc(N2CCCCCC2)o1)c1ccc(F)cc1`, for which the Potency is inactive: > 76.9 µM. Regarding `CCS(=O)(=O)N1Cc2ccccc2CC1C(=O)N1CCN(c2cccc(C)c2C)CC1` (configuration not stated), the Potency was inactive: > 76.9 µM. To `O=C1CC(c2ccc(F)cc2)Cc2nc(N3CCOCC3)ncc21` (configuration not stated) belongs inactive: > 76.9 µM; to `COC(=O)c1[nH]c2cc(OC)ccc2c1NC(=O)CN1CCC(C(N)=O)(N2CCCCC2)CC1`, inactive: > 76.9 µM; to `COc1ccccc1OCCCn1c(C)c(C#N)c2ccccc21`, inactive: > 76.9 µM. With `COc1ccc(OCC(O)COc2ccc(C(=O)O)cc2)cc1` (configuration not stated), the Potency is inactive: > 76.9 µM. `Cn1c(N)c(C(=O)COC(=O)C2(c3cccc(F)c3)CCCC2)c(=O)n(C)c1=O`: the Potency result is “inactive”.

As to `O=c1c2ccccc2n2cnnc2n1-c1ccccc1`, the Potency is inactive: > 76.9 µM.

With `O=C(Oc1ccccc1OC(=O)N1CCOCC1)N1CCOCC1`, the Potency is inactive: > 76.9 µM.

Take `O=C(c1ccc(S(=O)(=O)N2CCCC2)cc1)N1CCN(Cc2ccc3c(c2)OCO3)CC1`: the Potency is inactive: > 76.9 µM.

As to `O=C(COc1ccccc1)N1CCN(S(=O)(=O)Cc2ccccc2)CC1`, the Potency is inactive: > 76.9 µM. Consider `CCCC1=[N+](CC)CCn2c(C)ccc21`, for which the Potency is inactive: > 76.9 µM. Consider `Cc1ccnc2nc(C(=O)N3CCN(S(=O)(=O)c4ccccc4)CC3)nn12`, for which the Potency was inactive: > 76.9 µM. As to `Cc1ccccc1-c1ccc(=O)n(CC(=O)Nc2ccc(N3CCOCC3)cc2)n1`, the Potency is inactive: > 76.9 µM.

As to `O=S(=O)(NC1CCCCC1)c1ccc(Cl)s1`, the Potency result is “inactive”. With `Cc1nc2nc3c(cn2n1)C(=O)CC(C)(C)C3`, the Potency is inactive: > 76.9 µM. With `CCN(CC(=O)NC)S(=O)(=O)c1ccc(C)cc1`, the Potency was inactive: > 76.9 µM.

For the compound `COC(=O)c1[nH]c2cccc(OC)c2c1NC(=O)CCN1CCC(C(N)=O)CC1`, the Potency was inactive: > 76.9 µM. Turning to `COc1ccccc1OCC(=O)O`, the Potency was inactive: > 76.9 µM. For `CCc1nc2ccccc2c(=O)n1NC(=O)c1c(O)c2ccccc2[nH]c1=O`, the Potency is inactive: > 76.9 µM. The same measure for `O=C(NCc1cccs1)C1CCN(c2nc3ccccc3o2)CC1`: inactive: > 76.9 µM; for `CCc1[nH]nc2c1C(c1cccc(OC(=O)N3CCOCC3)c1)C(C#N)=C(N)O2` (configuration not stated): inactive: > 76.9 µM; for `Cc1cc(C)c(C#N)c(SCS(=O)Cc2ccc(Cl)cc2)n1` (configuration not stated): inactive: > 76.9 µM. The same measure for `COC(=O)c1ccc(C2/C(=C(/O)c3ccc(OC)cc3)C(=O)C(=O)N2CC2CCCO2)cc1` (configuration not stated): inactive: > 76.9 µM; for `Cc1cccc(C(=O)NCc2nnc(SCC(=O)N3CCN(c4ccccc4)CC3)n2C)c1`: inactive: > 76.9 µM; for `O=C(NCCN1CCOCC1)c1cn(CCc2ccccc2)nn1`: inactive: > 76.9 µM. Regarding `CC(C)CCn1cnc2c(cnn2-c2ccc(Cl)cc2)c1=O`, the Potency is inactive: > 76.9 µM. With `Cc1ccccc1-n1c(SCc2cc(=O)n3ccccc3n2)nc2[nH]ncc2c1=O`, the Potency was inactive: > 76.9 µM. To `COc1ccc(N2C(=O)CC(N3CCN(C4CCc5ccccc5C4)CC3)C2=O)cc1` (configuration not stated) belongs inactive: > 76.9 µM.

As to `Cc1cc2c(cc1C)NC(c1c(C)n(C)n(-c3ccccc3)c1=O)C1=C(CC(C)(C)CC1=O)N2` (configuration not stated), the Potency is inactive: > 76.9 µM.

With `Cc1c(C(=O)OC2CCCCC2)sc2nc[nH]c(=O)c12`, the Potency is inactive: > 76.9 µM.

As for `CCOc1ccc(-n2nnnc2SCC(=O)c2ccccc2)cc1`, the Potency was inactive: > 76.9 µM.

With `COc1ccccc1N1CCN(Cc2nc3ccccc3c(=O)n2CC(C)=O)CC1`, the Potency is inactive: > 76.9 µM.

For `CCC(=O)N1CCc2cc(S(=O)(=O)NC(C(=O)NCc3ccc(F)cc3)C(C)C)ccc21` (configuration not stated), the Potency was inactive: > 76.9 µM. Turning to `N#Cc1cc2cc3c(cc2nc1SCC(=O)OC1CCCCC1)OCO3`, the Potency was inactive: > 76.9 µM. As to `CC(C)(/C=N/O)/[N+]([O-])=C/C=[N+](\[O-])C(C)(C)/C=N/O`, the Potency is inactive: > 76.9 µM. Consider `CCn1c(Oc2ccc(Oc3ncc(Cl)cc3Cl)cc2)nc2c1c(=O)n(C)c(=O)n2C`, for which the Potency was inactive: > 76.9 µM. `COc1ccc(NC(=O)C=C(C)C)cc1Cl`: the Potency was inactive: > 76.9 µM. Turning to `Cc1onc(-c2ccccc2)c1C(N)=O`, the Potency was inactive: > 76.9 µM. For `COc1ccc(Cc2nnc(NC(=O)C3CCCO3)s2)cc1` (configuration not stated), the Potency is inactive: > 76.9 µM.

In the case of `O=C(NCc1ccco1)Oc1ccccc1`, the Potency was inactive: > 76.9 µM. For the compound `Nc1ccccc1-c1nc2ccccc2[nH]1`, the Potency was inactive: > 76.9 µM. Take `O=C(Cc1c(O)c2ccccc2[nH]c1=O)NC1CCCCCCC1`: the Potency was inactive: > 76.9 µM.

As for `Cc1nn(-c2ccc(F)cc2)c2c1cc(C#N)c1nc3ccccc3n12`, the Potency is inactive: > 76.9 µM. As for `CCOC(=O)CN1CC23C=CC(O2)C(C(=O)NC2CCCCC2)C3C1=O` (configuration not stated), the Potency is inactive: > 76.9 µM.

On to `Cn1nnnc1SCC(=O)N1c2ccccc2CCc2ccccc21`, for which the Potency was inactive: > 76.9 µM. In the case of `CCCn1c(SCC(=O)Nc2nnc(C(C)C)s2)nc2c1c(=O)n(C)c(=O)n2C`, the Potency was inactive: > 76.9 µM.

Turning to `CCOCCc1nnc(NC(=O)CN2C(=O)c3ccccc3C2=O)s1`, the Potency was inactive: > 76.9 µM. For the compound `COc1ccc(-c2nnc(SC3CCOC3=O)n2C2CCCCC2)cc1OC` (configuration not stated), the Potency was inactive: > 76.9 µM.

Turning to `CCN(CC)C(=O)CSCC(=O)Nc1ccccc1`, the Potency was inactive: > 76.9 µM. Regarding `Cc1[nH]n2c(=O)cc(Cc3ccccc3)nc2c1C#N`, the Potency was inactive: > 76.9 µM. Consider `Cc1noc(C)c1C(=O)N1CCc2ccccc2C1`, for which the Potency is inactive: > 76.9 µM.

As for `CCOC(=O)c1ccc(NC(=O)N2CCN(c3ccccn3)CC2)cc1`, the Potency is inactive: > 76.9 µM.

`COCC(=O)NC1CCN(S(=O)(=O)c2ccc(C(=O)O)cc2)CC1`: the Potency is inactive: > 76.9 µM.

In the case of `O=C(NCCN1CCOCC1)NC1(C(F)(F)F)Oc2ccccc2O1`, the Potency entry is “inactive”. Regarding `CCn1c(SCC(=O)c2ccccc2)nnc1-c1cnccn1`, the Potency is inactive: > 76.9 µM. On to `Cn1c(=O)c(=O)n(C)c2cc(S(=O)(=O)N3CCN(Cc4ccccc4)CC3)ccc21`, for which the Potency is inactive: > 76.9 µM. As for `Cc1sc2ncnc(OCC(=O)NCC3CCCO3)c2c1C` (configuration not stated), the Potency is inactive: > 76.9 µM. The same measure for `CC(C)NC(=O)CCCn1c(=S)[nH]c2cc3c(cc2c1=O)OCO3`: inactive: > 76.9 µM.

Turning to `CCN(CC)C(=O)CSc1nnc(-c2ccco2)n1Cc1ccco1`, the Potency was inactive: > 76.9 µM. For `O=C(NCC1CCCO1)C1CCC(=O)N1Cc1ccccc1Cl` (configuration not stated), the Potency is inactive: > 76.9 µM. In the case of `COc1ccc(-c2cc3ccc(OCc4nn[nH]n4)cc3oc2=O)cc1OC`, the Potency was inactive: > 76.9 µM. As for `O=C(CN1C(=O)C2C3C=CC(C3)C2C1=O)N1CC(=O)N(CCc2ccccc2)C(=O)C1` (configuration not stated), the Potency is inactive: > 76.9 µM.

On to `CCC(=O)Nc1ccc(NC(=O)CSc2nnc(C(C)C)n2C)cc1`, for which the Potency was inactive: > 76.9 µM.

In the case of `CCOC(=O)CSc1nnc(CNC(=O)c2ccccc2OC)n1-c1ccc(OC)cc1`, the Potency is inactive: > 76.9 µM. To `CCCC(NC(=O)c1ccccc1)c1nc2ccccc2n1Cc1ccc(C(=O)OC)o1` (configuration not stated) belongs inactive: > 76.9 µM; to `COc1ccc(NC(C)=O)cc1NC(=O)CCn1c(=O)sc2ccccc21`, inactive: > 76.9 µM; to `COc1cc2ccccc2cc1C(=O)Nc1ccc(N2CCN(C)CC2)cc1`, inactive: > 76.9 µM. The same measure for `COc1ccc(OC)c(N=c2oc3c(OC)cccc3cc2C(=O)NCc2ccco2)c1`: inactive: > 76.9 µM; for `O=C(NCC1COc2ccccc2O1)c1ccc(NC(=O)C2CCCO2)cc1` (configuration not stated): “inactive”; for `O=C(O)CC(NC(=O)C(c1ccccc1)c1ccccc1)c1ccco1` (configuration not stated): inactive: > 76.9 µM. On to `CCc1nccn1S(=O)(=O)c1ccc(Br)cc1Br`, for which the Potency was inactive: > 76.9 µM. Consider `O=C(Cn1c(=O)n(Cc2ccco2)c(=O)c2ccccc21)NCC1CCCO1` (configuration not stated), for which the Potency is inactive: > 76.9 µM. Regarding `C=CCc1cc(OC)ccc1OCCON1C(=O)CCC1=O`, the Potency was inactive: > 76.9 µM. To `CC(C)c1ccc(-c2nc(N3CCOCC3)[nH]c(=O)c2C#N)cc1` belongs inactive: > 76.9 µM; to `COc1ccc(-n2nnnc2SCC(=O)c2ccc(OC)c(OC)c2)cc1`, inactive: > 76.9 µM.
